# “And” between values parts separate entries of the source, which are not always exact repeats. Equal entries are not always repeated. Screen size: about 420,000 compounds; about 50,000 (12%) were called active. This list was built around the results that the source calls inconclusive (neither active nor inactive); the mix of calls is not that of the screen. Calls come from the whole dose curve; as a rule, active = well fitted inhibition curve with a large enough effect; inconclusive = small, poorly fitted or top-dose-only effect; inactive = flat fitted curve, though single readings scatter. Potencies beside an inconclusive call are fits to weak or partial responses and may not hold up.
# Test: qHTS for Inhibitors of human tyrosyl-DNA phosphodiesterase 1 (TDP1): qHTS in cells in presence of CPT; note: nearly all actives have a fitted effect of over 55% in size
# Details: chicken DT40 Tdp1-/-;hTDP1 cells + 20 nM CPT, ATP luminescence, 48 h; activity change, negative = growth inhibition: at 46.2 µM (top of the series) unless noted
# Method in brief: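 Chicken DT40 Tdp1-/- cells complemented with human TDP1, 400 cells/well, exposed to compounds plus 20 nM camptothecin for at least 48 h at 37 C; viability read as ATP content by CellTiter-Glo luminescence.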
# % is set by controls: 0 for no effect and ±100 for the full control effect; potency is the fitted concentration of half-maximal effect; tags give direction and shape of the fitted curve.
Structure (SMILES),"activity change, negative = growth inhibition",Potency
CNc1nc(Cl)nc(NC(C)(C)C)n1,inactive: -10.2%,
Cc1cc(C)c(NC(=O)CN(C)S(=O)(=O)c2ccc3c(c2)n(C)c(=O)c(=O)n3C)c(C)c1,,"inconclusive: 25.9 µM [inhibitor, single point]"
Cc1ccc(Cl)cc1NC(=O)C1CCCN(S(=O)(=O)c2c(C)noc2/C=C/N(C)C)C1 (centres undefined),,"inconclusive: 23.1 µM [inhibitor, single point]"
O=C(NCc1ccco1)C1(S(=O)(=O)c2ccccc2)CC=CC1,,"inconclusive: 23.1 µM [inhibitor, partial curve]"
C/C(=N\NC(=O)c1cccc(N/N=C(\C)c2ccncc2)c1)c1ccncc1,,active: 20.6 µM
COCCNCc1ccccc1,,"inconclusive: 29.1 µM [inhibitor, single point]"
COc1cc([C@H]2c3[nH]c4ccccc4c3C[C@H]3C(=O)N4[C@@H](c5cc(OC)c(OC)c(OC)c5)c5[nH]c6ccccc6c5C[C@H]4C(=O)N23)cc(OC)c1OC,,active: 4.61 µM
CCOC(=O)N1CCN(C(=O)c2cnn3c(C)c(Cc4ccc(C)cc4)c(C)nc23)CC1,,"inconclusive: 16.4 µM [inhibitor, partial curve, poor fit]"
CCC(C)(c1ccc(C=O)s1)c1ccc(C=O)s1,,"inconclusive: 23.1 µM [inhibitor, single point]"
CN1OC[C@@H]2CN(C(=O)CCc3ccccc3)[C@H](c3cccc(Oc4ccccc4)c3)C[C@@H]21,,"inconclusive: 20.6 µM [inhibitor, single point]"
Cc1ccsc1C1Nc2ccccc2-c2nc3ccccc3n21 (centres undefined),,"inconclusive: 14.6 µM [inhibitor, partial curve, poor fit]"
COc1ccccc1N1CCN(C(=O)CCNS(=O)(=O)c2cc(Br)cnc2N)CC1,,active: 18.4 µM
CCOC(=O)[C@]12CCC=C1N(Cc1ccc3c(c1)OCO3)C(=O)[C@H](CC(=O)NCC13CC4CC(CC(C4)C1)C3)C2,,"inconclusive: 23.1 µM [inhibitor, single point]"
CC(NCC(O)c1ccc([N+](=O)[O-])cc1)C12CC3CC(CC(C3)C1)C2 (centres undefined),,"inconclusive: 29.1 µM [inhibitor, single point]"
CSc1ccc(CCNS(=O)(=O)c2c(C)[nH]c(C)c2C(=O)N2CCCCC2)cc1,,"inconclusive: 20.6 µM [inhibitor, single point]"
COc1ccc(-c2cc(C(F)F)n3ncc(C(=O)N4CCc5ccccc5C4)c3n2)cc1,,"inconclusive: 20.6 µM [inhibitor, single point]"
Cc1ccc(S(=O)(=O)N2CCOCC2)cc1C(=O)NCCc1ccc(Cl)cc1,inactive: -10.1%,
Cc1ccc(NC(=O)C2C3CC4OC(=O)C2C4C3)cc1Cl (centres undefined),inactive: -5.47%,
CCc1cc(OCCN2C(=O)NC(C)(C)C2=O)ccc1Cl,,"inconclusive: 25.9 µM [inhibitor, single point]"
O=C(COc1ccc(F)cc1)c1ccc2c(c1)CCCC2,,"inconclusive: 29.1 µM [inhibitor, single point]"
Cc1c(CCO)c(=O)[nH]n1S(=O)(=O)c1ccc([N+](=O)[O-])cc1,,"inconclusive: 9.2 µM [inhibitor, partial curve]"
CC(=O)NC(c1ccccc1)c1nc(/C=C/c2ccccc2)cs1 (centres undefined),,"inconclusive: 25.9 µM [inhibitor, single point]"

Structure (SMILES),"activity change, negative = growth inhibition",Potency
NS(=O)(=O)c1ccc(CCNc2ccnc3cc(Cl)ccc23)cc1,,"inconclusive: 23.1 µM [inhibitor, single point]"
CCC(C)NC(=O)Cn1c(=O)n(-c2ccc(OC)cc2)c(=O)c2ccc(C(=O)NCc3ccc(C)cc3)cc21 (centres undefined),inactive: 13.5%,
O=C(c1cc2ccccc2cc1O)N1CCN(c2cccc(Cl)c2)CC1,,"inconclusive: 29.1 µM [inhibitor, single point]"
Fc1ccc(C2=NC(c3cccc(C(F)(F)F)c3)=Nc3ccccc3N2)cc1,,"inconclusive: 23.1 µM [inhibitor, single point]"
CN(Cc1ccccc1)C(=O)CSc1nc2c(c(C(F)(F)F)n1)CCc1ccccc1-2,,active: 29.1 µM
Clc1ccc2c(c1)Nc1ccccc1CC2,,"inconclusive: 20.6 µM [inhibitor, single point]"
Clc1cccc(Cl)c1COn1nnc2ccccc21,,"inconclusive: 9.2 µM [inhibitor, partial curve]"
C#Cc1cccc(C(=O)NC2CCCN(C3Cc4ccccc4C3)C2)c1 (centres undefined),,"inconclusive: 29.1 µM [inhibitor, single point]"
COc1ccc(NC(=O)CN2C(=O)NC(C)(c3ccc(C)cc3)C2=O)c([N+](=O)[O-])c1 (centres undefined),inconclusive: -30.9% [inhibitor],
NC(=S)NN=C1c2cc(OCCN3CCOCC3)ccc2-c2ccc(OCCN3CCOCC3)cc21,,active: 16.4 µM
Cc1ccc2nc(/C(C#N)=C/c3ccc(-c4ccc(F)cc4F)o3)[nH]c2c1,,active: 2.91 µM
O=C(c1ccc2c(=O)n3c(nc2c1)CCCCC3)N1CCN(C(c2ccccc2)c2ccccc2)CC1,,"inconclusive: 29.1 µM [inhibitor, partial curve, poor fit]"
O=C(NCc1ccc(F)cc1)C1CCN(S(=O)(=O)c2ccc3c(c2)OCCCO3)CC1,,"inconclusive: 29.1 µM [inhibitor, single point]"
O=C(C[n+]1cc(Br)cc(Br)c1)c1ccc(-c2ccccc2)cc1,,"inconclusive: 29.1 µM [inhibitor, single point]"
CC(=O)N1CCc2cc(S(=O)(=O)CCC(=O)N3CCN(c4cc(C)ccc4C)CC3)ccc21,,"inconclusive: 29.1 µM [inhibitor, single point]"
O=C(Nc1ccccc1C(=O)OCc1cc(=O)n2ccsc2n1)c1cccc(F)c1,,active: 18.4 µM
O=C(CCNC(=O)C1CCN(S(=O)(=O)c2ccc(F)cc2)CC1)NCc1ccncc1,inactive: -0.617%,
CC(=O)N1CCN(C(=O)c2ccc(-c3cccc(C(F)(F)F)c3)o2)CC1,,"inconclusive: 29.1 µM [inhibitor, single point]"
CCN(CC(=O)NCc1ccc(Cl)cc1)Cc1cc(=O)n2ccsc2n1,inactive: 2.25%,
CC(C)NS(=O)(=O)c1ccc(OCC(=O)N2CCN(c3ccccc3F)CC2)cc1,,"inconclusive: 20.6 µM [inhibitor, single point]"
CCOC(=O)c1cnc(-n2nc(C)cc2C)nc1NC(C)c1ccccc1 (centres undefined),,active: 4.61 µM
CCc1ccc(S(=O)(=O)c2cn(C)c3cc(N4CCN(CC)CC4)c(F)cc3c2=O)cc1,,"inconclusive: 29.1 µM [inhibitor, single point]"

Structure (SMILES),"activity change, negative = growth inhibition",Potency
O=C(c1cc(=O)[nH]c2ccccc12)N1CCN(c2ccc([N+](=O)[O-])cc2)CC1,,"inconclusive: 29.1 µM [inhibitor, single point]"
O=c1cc(-c2ccccc2)cc(-c2ccccc2)n1CCCO,,"inconclusive: 18.4 µM [inhibitor, single point]"
CCC(Sc1nc(C)cc(=O)[nH]1)C(=O)Nc1sc2c(c1C#N)CCCC2 (centres undefined),,active: 16.4 µM
CSc1cccc(NC(=O)c2ccc3c(c2)c(C)c(C)n3Cc2ccc(F)cc2)c1,,"inconclusive: 16.4 µM [inhibitor, single point]"
CN1CCN(S(=O)(=O)c2ccc(N3CCN(C(c4ccccc4)c4ccccc4)CC3)nc2)CC1,,"inconclusive: 23.1 µM [inhibitor, single point]"
COc1ccc(/C=C(\C#N)C(=O)NCCc2ccccc2)cc1OCc1ccccc1,,"inconclusive: 29.1 µM [inhibitor, single point]"
Cc1cccc(C(=O)NC2C(=O)NNC2c2ccc(Cl)cc2)c1 (centres undefined),,"inconclusive: 29.1 µM [inhibitor, single point]"
COc1ccccc1-c1c(C)nn2c(C(F)(F)F)cc(-c3ccccc3)nc12,,"inconclusive: 29.1 µM [inhibitor, single point]"
O=C(NNC(=O)c1ccccc1O)c1ccc(Cl)cc1,,active: 18.4 µM
Cc1ccc(CSCC(=O)Nc2ccccc2C(=O)O)cc1,,"inconclusive: 20.6 µM [inhibitor, single point]"
NC(=O)c1ccsc1NC(=O)COc1ccccc1,,"inconclusive: 29.1 µM [inhibitor, single point]"
O=c1c2ccccc2c(C=Nc2cccc(S(=O)(=O)NCc3ccco3)c2)c(O)n1-c1ccc(Cl)cn1,,"inconclusive: 16.4 µM [inhibitor, single point]"
O=C(c1ccc(CS(=O)c2ccccc2Cl)o1)N1CCN(c2ccccc2F)CC1 (centres undefined),,active: 1.3 µM
CN(C)CCN(Cc1ccc(Cl)cc1)c1ccccn1,,"inactive and inconclusive: 29.1 µM [inhibitor, single point]"
O=C(c1ccc(N2CCC(NCCCn3ncc4ccccc43)CC2)cc1)N1CCc2ccccc2C1,inactive: 5.54% [at 9.04 µM],
COc1ccc(CN(C)C(=O)Cn2cnc3c(NCc4ccccc4)ncnc32)cc1OC,,"inconclusive: 23.1 µM [inhibitor, single point]"
O=S1(=O)N=C(Nc2cccc(C(F)(F)F)c2)c2ccccc21,,"inconclusive: 23.1 µM [inhibitor, single point]"
Cc1ccccc1OCC(=O)Nc1ccc(N2CCN(S(C)(=O)=O)CC2)cc1,inactive: -7.62%,
COc1ccc(C(=O)c2ccc(Br)cc2)c2ccccc12,,"inconclusive: 18.4 µM [inhibitor, single point]"
COc1cccc(C(=O)N(Cc2cccc(Cl)c2)Cc2ccco2)c1,,"inconclusive: 29.1 µM [inhibitor, single point]"
